Inconclusive results are not listed. Calls follow the shape of the dose curve; as a rule, active = well fitted curve in the direction sought with a large enough effect; inconclusive = small, poorly fitted or top-dose-only effect, or another doubt; inactive = no such curve, though single readings can be large; an effect the other way counts as inactive or inconclusive. More than one record can exist for a structure, and the calls need not agree. Not every entry of the source has a single result; some have several. This is not the full list of results. An entry can have further records. Values that stand side by side repeat one measurement across runs, samples, wells, individuals or studies. Marks in square brackets tell the records apart. A, B and so on number the origins entry by entry.
Experiments:
[1] = qHTS of pediatric cancer cell lines to identify multiple opportunities for drug repurposing: Primary screen for SK-N-MC cells (AID 1347093)
[2] = qHTS of pediatric cancer cell lines to identify multiple opportunities for drug repurposing: Primary screen for SJ-GBM2 cells (AID 1347091)
Procedure, shortened: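 Viability measured as metabolically active cells via CellTiter-Glo luminescence following 48 hours of compound exposure, 11-point dilutions in confirmatory testing. 500-1,000 cells/well plated 5 hours before dosing; controls were DMSO and 2.3 µM bortezomib.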

[3] = qHTS of pediatric cancer cell lines to identify multiple opportunities for drug repurposing: Primary screen for A673 cells (AID 1347092); also: nearly all actives have a fitted effect of over 45% in size
Procedure, shortened: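 Cell viability of A673 measured by CellTiter-Glo ATP luminescence after 48 hours compound exposure. Dilution series spanned 0.78 nM to 46 µM (MIPE, 11-point) or 0.59 nM to 46 µM (NPC, 8-point); bortezomib 2.3 uM positive control.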

[4] = qHTS of pediatric cancer cell lines to identify multiple opportunities for drug repurposing: Primary screen for BT-37 cells (AID 1347094)
Procedure, shortened: (§1)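 Cells plated at 500-1,000/well in growth medium, compounds added after 5 h. MIPE tested at 11 points (from 0.78 nM), NPC at 8 points (from 0.59 nM). CellTiter-Glo luminescence after 48 h; concentration-response curves from primary screen.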

[5] = qHTS of pediatric cancer cell lines to identify multiple opportunities for drug repurposing: Primary screen for NB-EBc1 cells (AID 1347095)
[6] = qHTS of pediatric cancer cell lines to identify multiple opportunities for drug repurposing: Primary screen for Saos-2 cells (AID 1347097); also: nearly all actives have a fitted effect of over 40% in size
Procedure, shortened: as §1

[7] = qHTS of pediatric cancer cell lines to identify multiple opportunities for drug repurposing: Primary screen for SK-N-SH cells (AID 1347098); also: nearly all actives have a fitted effect of over 65% in size
Procedure, shortened: (§2)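 Cells (500-1,000/well) rested 5 h, then received compounds for 48 h; metabolically active cells were measured by CellTiter-Glo luminescence. Final concentrations spanned up to 46 µM (MIPE, 11-point) or 0.59 nM-46 µM (NPC, 8-point) in primary screens, 11-point in follow-ups.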

[8] = qHTS of pediatric cancer cell lines to identify multiple opportunities for drug repurposing: Primary screen for NB1643 cells (AID 1347099); also: nearly all actives have a fitted effect of over 50% in size
[9] = qHTS of pediatric cancer cell lines to identify multiple opportunities for drug repurposing: Primary screen for LAN-5 cells (AID 1347100)
Procedure, shortened: (§3)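 Viability after 48 h compound treatment at 37C, 500-1,000 cells/well, read as ATP luminescence with CellTiter-Glo. Primary screens used 11-point (MIPE, 0.78 nM-46 µM) or 8-point (NPC, 0.59 nM-46 µM) final concentrations; follow-up screens used 11-point dilutions.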

[10] = qHTS of pediatric cancer cell lines to identify multiple opportunities for drug repurposing: Primary screen for BT-12 cells (AID 1347101); also: nearly all actives have a fitted effect of over 25% in size
Procedure, shortened: as §2

[11] = qHTS of pediatric cancer cell lines to identify multiple opportunities for drug repurposing: Primary screen for OHS-50 cells (AID 1347103); also: nearly all actives have a fitted effect of over 40% in size
Procedure, shortened: as §2

[12] = qHTS of pediatric cancer cell lines to identify multiple opportunities for drug repurposing: Primary screen for RD cells (AID 1347104); also: nearly all actives have a fitted effect of over 55% in size
Procedure, shortened: as §1

[13] = qHTS of pediatric cancer cell lines to identify multiple opportunities for drug repurposing: Primary screen for Rh41 cells (AID 1347108); also: nearly all actives have a fitted effect of over 70% in size
Procedure, shortened: as §1

[14] = tested on: Zika virus NS2B-NS3 protease; assay: Primary screen GU AMC qHTS for Zika virus inhibitors (AID 1347154); also: nearly all actives have a fitted effect of over 70% in size
Procedure, shortened: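 Unlinked Zika NS2B hydrophilic domain–NS3 protease complex at 25 nM in 10 mM Tris-HCl pH 8.0, 0.01% Tween 20, with an AMC peptide substrate. Fluorescence change (340/450 nm) over 15 min at room temperature, normalized to controls, fitted to 4-parameter Hill.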

[15] = qHTS of pediatric cancer cell lines to identify multiple opportunities for drug repurposing: Primary screen for Rh18 cells (AID 1347102); also: nearly all actives have a fitted effect of over 65% in size
Procedure, shortened: as §3

[16] = qHTS of pediatric cancer cell lines to identify multiple opportunities for drug repurposing: Primary screen for U-2 OS cells (AID 1347096); also: nearly all actives have a fitted effect of over 50% in size
Procedure, shortened: as §3

[17] = qHTS of pediatric cancer cell lines to identify multiple opportunities for drug repurposing: Confirmatory screen for BT-12 cells (AID 1347112); also: nearly all actives have a fitted effect of over 55% in size
Procedure, shortened: as §3

[18] = qHTS of pediatric cancer cell lines to identify multiple opportunities for drug repurposing: Confirmatory screen for LAN-5 cells (AID 1347113); also: nearly all actives have a fitted effect of over 65% in size
Procedure, shortened: as §3

[19] = qHTS of pediatric cancer cell lines to identify multiple opportunities for drug repurposing: Confirmatory screen for NB-EBc1 cells (AID 1347115);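 also: cells exposed to compound for 48 h before the viability read; nearly all actives have a fitted effect of over 45% in size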
Procedure, shortened: as §3

[20] = qHTS of pediatric cancer cell lines to identify multiple opportunities for drug repurposing: Confirmatory screen for Rh18 cells (AID 1347125); also: nearly all actives have a fitted effect of over 55% in size
Procedure, shortened: as §3

[21] = qHTS of pediatric cancer cell lines to identify multiple opportunities for drug repurposing: Confirmatory screen for Rh30 cells (AID 1347126); also: nearly all actives have a fitted effect of over 55% in size
Procedure, shortened: as §3

[22] = qHTS of pediatric cancer cell lines to identify multiple opportunities for drug repurposing: Confirmatory screen for SK-N-SH cells (AID 1347129);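 also: cells exposed to compound for 48 h before viability read; nearly all actives have a fitted effect of over 60% in size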
Procedure, shortened: as §3

[23] = qHTS of pediatric cancer cell lines to identify multiple opportunities for drug repurposing: Primary screen for control Hh wild type fibroblast cells (AID 1347106); also: nearly all actives have a fitted effect of over 55% in size
Procedure, shortened: as §3
Potency is read from the fitted curve at half-maximal effect.

Compound: CN(CCOc1ccc(CC2SC(=O)NC2=O)cc1)c1ccccn1 (centres undefined)
- Potency [1]: inactive [sample A] and active: 23.5 µM [sample B]

Compound: CC(C)Cn1cnc2c(N)nc3ccccc3c21
- Potency [2]: inactive [sample A] and active: 18.7 µM [sample B]
- Potency [3]: inactive [sample A] and active: 1.87 µM [sample B]
- Potency [4]: inactive [sample A] and active: 13.7 µM [sample B]
- Potency [5]: inactive [sample A] and active: 7.43 µM [sample B]
- Potency [6]: inactive [sample A] and active: 18.7 µM [sample B]
- Potency [7]: inactive [sample A] and active: 19.2 µM [sample B]
- Potency [8]: inactive [sample A] and active: 2.96 µM [sample B]
- Potency [9]: inactive [sample A] and active: 3.72 µM [sample B]
- Potency [10]: inactive [sample A] and active: 21.7 µM [sample B]
- Potency [11]: inactive [sample A] and active: 19.3 µM [sample B]
- Potency [12]: inactive [sample A] and active: 16.6 µM [sample B]
- Potency [13]: inactive [sample A] and active: 14.8 µM [sample B]

Compound: O=S(=O)(O)CCS
- Potency [1]: active: 2.64 µM [sample A] and inactive [sample B]
- Potency [8]: active: 14.8 µM [sample A] and inactive [sample B]

Compound: Nc1[nH]c(=O)ncc1F
- Potency [4]: inactive [sample A] and active: 24.3 µM [sample B]
- Potency [5]: inactive [sample A] and active: 8.33 µM [sample B]
- Potency [9]: inactive [sample A] and active: 20.9 µM [sample B]

Compound: CNS(=O)(=O)Cc1ccc2[nH]cc(CCN(C)C)c2c1
- Potency [14]: inactive [sample A] and active: 30.4 µM [sample B]

Compound: O=C(O)c1cc(=O)[nH]c(=O)[nH]1
- Potency [7]: active: 38.6 µM [sample A] and inactive [sample B]

Compound: CC(C)(C#N)c1cc(Cn2cncn2)cc(C(C)(C)C#N)c1
- Potency [12]: inactive [sample A] and active: 26.4 µM [sample B]

Compound: CC[C@H](C)C(=O)O[C@H]1C[C@@H](C)C=C2C=C[C@H](C)[C@H](CC[C@@H]3C[C@@H](O)CC(=O)O3)[C@H]21
- Potency [15]: active: 10.6 µM [sample A] and inactive [sample B]

Compound: COc1ccc2c(c1)c(CC(=O)OCC(=O)O)c(C)n2C(=O)c1ccc(Cl)cc1
- Potency [1]: inactive [sample A] and active: 18.7 µM [sample B]
- Potency [13]: inactive [sample A] and active: 18.7 µM [sample B]

Compound: Nc1nc(F)nc2c1ncn2[C@@H]1O[C@H](CO)[C@@H](O)[C@@H]1O
- Potency [16]: inactive [sample A] and active: 935 nM [sample B]
- Potency [7]: inactive [sample A] and active: 681 nM [sample B]
- Potency [15]: inactive [sample A] and active: 372 nM [sample B]
- Potency [17]: inactive [sample A] and active: 2.33 µM [sample B]
- Potency [18]: inactive [sample A] and active: 369 nM [sample B]
- Potency [19]: inactive [sample A] and active: 1.31 µM [sample B]
- Potency [20]: inactive [sample A] and active: 827 nM [sample B]
- Potency [21]: inactive [sample A] and active: 1.31 µM [sample B]
- Potency [22]: inactive [sample A] and active: 833 nM [sample B]

Compound: Nc1nc(=S)c2[nH]cnc2[nH]1
- Potency [21]: active: 11.7 µM [sample A] and inactive [sample B]

Compound: Cn1nnc2c(C(N)=O)ncn2c1=O
- Potency [5]: inactive [sample A] and active: 18.7 µM [sample B]

Compound: COC(=O)Nc1nc2ccc(Sc3ccccc3)cc2[nH]1
- Potency [15]: active: 11.9 µM [sample A] and inactive [sample B]

Compound: Cc1cc(NS(=O)(=O)c2ccc(N)cc2)no1
- Potency [1]: inactive [sample A] and active: 5.26 µM [sample B]
- Potency [7]: inactive [sample A] and active: 5.41 µM [sample B]
- Potency [8]: inactive [sample A] and active: 7.43 µM [sample B]

Compound: CC1=CC(=O)c2ccccc2C1=O
- Potency [13]: inactive [sample A] and active: 23.5 µM [sample B]

Compound: NC1(c2ccc(-c3nc4ccn5c(=O)[nH]nc5c4cc3-c3ccccc3)cc2)CCC1
- Potency [8]: active: 14.8 µM [sample A] and inactive [sample B]

Compound: COc1nc(N)nc2c1ncn2[C@@H]1O[C@H](CO)[C@@H](O)[C@@H]1O
- Potency [13]: active: 14.8 µM [sample A] and inactive [sample B]

Compound: O=c1oc2c(O)c(O)cc3c(=O)oc4c(O)c(O)cc1c4c23
- Potency [10]: inactive [sample A] and active: 27.3 µM [sample B]

Compound: COC(=O)Nc1nc2ccc(S(=O)c3ccccc3)cc2[nH]1 (centres undefined)
- Potency [16]: active: 10.6 µM [sample A] and inactive [sample B]

Compound: CC(C)C[C@H](NC(=O)[C@H](CCc1ccccc1)NC(=O)CN1CCOCC1)C(=O)N[C@@H](Cc1ccccc1)C(=O)N[C@@H](CC(C)C)C(=O)[C@@]1(C)CO1
- Potency [7]: inactive [sample A] and active: 383 nM [sample B]

Compound: CCCCOc1ccc(CC(=O)NO)cc1
- Potency [8]: inactive [sample A] and active: 9.35 µM [sample B]

Compound: COC(=O)Nc1nc2ccc(C(=O)c3ccccc3)cc2[nH]1
- Potency [23]: inactive [sample A] and active: 8.33 µM [sample B]

Compound: Cc1cccc(N(C)C(=S)Oc2ccc3ccccc3c2)c1
- Potency [1]: inactive [sample A] and active: 8.33 µM [sample B]
- Potency [8]: inactive [sample A] and active: 9.35 µM [sample B]

Source: PubChem BioAssay (NCATS)
